{"source": "PubChem BioAssay AID504466", "about": "(National Center for Advancing Translational Sciences (NCATS), 2011)", "note": "Screen size: about 330,000 compounds; about 4,200 (1.3%) were called active. This list was built around the results that the source calls inconclusive (neither active nor inactive); the mix of calls is not that of the screen. Calls follow the shape of the dose curve; as a rule, active = well fitted activation curve with a large enough effect; inconclusive = small, poorly fitted or top-dose-only effect; inactive = no such curve, though single readings can be large or run the other way. A potency beside an inconclusive call is a rough fit, not a confirmed value. Potency is read from the fitted curve at half-maximal effect; tags tell the direction and shape of the fitted curve."}
{"assay": "qHTS screen for small molecules that induce genotoxicity in human embryonic kidney (HEK293T) cells expressing luciferase-tagged ELG1; also: nearly all actives have a fitted effect of over 60% in size; as to activity change, positive = activation: % of control where 0% means no effect", "conditions": "HEK293T ELG1-luciferase reporter, luminescence, 16 h; series mostly up to 46 µM; activity change, positive = activation: at the top concentration", "summary_of_the_method": "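After overnight (16 hr) compound treatment at 37 °C, ELG1-luciferase HEK293T cells were lysed with ONE-Glo; luminescence quantified 30 min later at room temperature.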"}
{"smiles": "CCCCOC(=O)Nc1cccc(C(=O)OCC)c1", "Potency": "inconclusive: 5.17 µM [activator, partial curve]"}
{"smiles": "CC(=O)Nc1ccc(N/C=C2/CCCC2=O)cc1", "activity change, positive = activation": "inactive: 14.1%"}
{"smiles": "O=C(Nc1ccc(NC(=O)c2cccs2)cc1)c1ccco1", "Potency": "inconclusive: 4.61 µM [activator, single point]"}
{"smiles": "O=c1c(-c2ccc3c(c2)OCCO3)coc2cc(O)cc(O)c12", "Potency": "active: 2.51 µM"}
{"smiles": "CC(=O)Nc1ccc(NC(=O)CN2CCCC(C)C2)c(Cl)c1", "note": "(stereo not given)", "Potency": "inconclusive: 18.4 µM [activator, single point]"}
{"smiles": "CCn1cc(C(=O)N[C@H](C(=O)NCCO)C(C)C)c(=O)c2cc3c(cc21)OCO3", "activity change, positive = activation": "inactive: -5.28%"}
{"smiles": "O=c1oc(/C=C/c2ccc([N+](=O)[O-])s2)nc2ccccc12", "Potency": "inconclusive: 25.9 µM [activator, partial curve, poor fit]"}
{"smiles": "Cc1cc(N2CCC(C)CC2)c(F)cc1[N+](=O)[O-]", "Potency": "inconclusive: 20.6 µM [activator, partial curve, poor fit]"}
{"smiles": "CC(C)(C)c1ccc(C(=O)Nc2nnc(C3=COCCO3)o2)cc1", "activity change, positive = activation": "inactive: -3.1%"}
{"smiles": "Cc1cccc(NC(=O)c2nc[nH]c2C(=O)NC2CCN(C(=O)OC(C)(C)C)CC2)c1", "activity change, positive = activation": "inactive: -9.41%"}
{"smiles": "O=C(CN1CCN(Cc2ccc3c(c2)OCO3)CC1)Nc1cc(S(=O)(=O)N2CCCC2)ccc1Cl", "activity change, positive = activation": "inactive: -0.765%"}
{"smiles": "Cn1cccc1/C=C1\\SC(=S)N(CC(=O)O)C1=O", "activity change, positive = activation": "inactive: 1.35%"}
{"smiles": "COc1cccc2cc(NC(=O)C3CCCCC3)c(=O)oc12", "Potency": "inconclusive: 4.61 µM [activator, partial curve]"}
{"smiles": "CCC(C)c1ccc2oc(-c3ccc(NC(=O)Cn4cnc5c(=O)n(C)c(=O)n(C)c54)cc3)nc2c1", "note": "(stereo not given)", "activity change, positive = activation": "inactive: 6.71%"}
{"smiles": "C=CCSc1n[nH]c(-c2ccccc2)n1", "Potency": "inconclusive: 14.6 µM [activator, partial curve]"}
{"smiles": "O=C(Nc1ccccc1)c1cn2ccccc2n1", "Potency": "inconclusive: 0.517 µM [activator, full curve]"}
{"smiles": "O=C(CC(Nc1ccc(F)cc1)C(=O)O)c1ccccc1", "note": "(stereo not given)", "Potency": "active: 1.03 µM"}
{"smiles": "COc1ccc(NC(=O)c2ccc3snnc3c2)cc1", "Potency": "inconclusive: 20.6 µM [activator, partial curve, poor fit]"}
{"smiles": "O=C(CSc1cccc[n+]1[O-])c1cc2ccccc2o1", "Potency": "inconclusive: 23.1 µM [activator, single point]"}
{"smiles": "O=c1oc(Nc2ccccc2Cl)nc2ccccc12", "Potency": "active: 20.6 µM"}
{"smiles": "CCOC(=O)c1ccc2nc(NC(C)=O)sc2c1", "Potency": "inconclusive: 14.6 µM [activator, partial curve]"}
{"smiles": "O=C(CSc1nnc(-c2cccs2)o1)N1CCCCC1", "Potency": "active: 9.2 µM"}
{"smiles": "COCCn1c(C)cc(C(=O)COC(=O)c2cccc(O)c2)c1C", "Potency": "inconclusive: 5.8 µM [activator, single point]"}
{"smiles": "CCOc1ccccc1C(=O)NCC(=O)N1CCC(C)CC1", "activity change, positive = activation": "inactive: 6.72%"}
{"smiles": "CCOC(=O)/C(C#N)=C1/C=CN(c2ccc(C)cc2)C=N1", "Potency": "inconclusive: 12.6 µM [activator, partial curve]"}
{"smiles": "COc1ccc(-c2[nH]n(-c3ccc([N+](=O)[O-])cc3)c(=O)c2C=NCCN2CCNCC2)cc1", "Potency": "inconclusive: 4.61 µM [activator, partial curve]"}
{"smiles": "CNc1nc(-c2ccccn2)nnc1-c1ccccc1", "Potency": "inconclusive: 3.66 µM [activator, full curve, poor fit]"}
{"smiles": "O=C(N/N=C/c1cccnc1)c1ccc2c(c1)OCCO2", "Potency": "inconclusive: 9.2 µM [activator, partial curve, poor fit]"}
{"smiles": "CC(C)C(NC(=O)c1ccco1)C(=O)NCC(c1ccco1)N(C)C", "note": "(stereo not given)", "Potency": "inconclusive: 20.6 µM [activator, single point]"}
{"smiles": "O=C1c2ccccc2C(=O)C1c1nccc2ccccc12", "Potency": "active: 0.082 µM"}
{"smiles": "N#C/C(=C/c1ccc(N2CCCCC2)o1)C(=O)Nc1ccc(Cl)cc1", "Potency": "active: 2.31 µM"}
{"smiles": "COc1ccc(Cn2c(=S)[nH]c3cc(OC)c(OC)cc3c2=O)cc1", "Potency": "inconclusive: 20.6 µM [activator, single point]"}
{"smiles": "COc1ccc(CCc2nc(C)ccc2O)cc1", "Potency": "inconclusive: 14.6 µM [activator, partial curve]"}
{"smiles": "CCOC(=O)c1ccc(Nc2nc(N)c3cc(OC)c(OC)cc3n2)cc1", "activity change, positive = activation": "inactive: 13.3%"}
{"smiles": "CCOC(=O)/C(C#N)=C/c1cc(C)n(-c2ccccc2)c1C", "Potency": "active: 0.651 µM"}
{"smiles": "Cc1ccc(C)n1CCN1CCN(C(=O)c2ccc(Cl)cc2)CC1", "Potency": "inconclusive: 18.3 µM [activator, partial curve, poor fit]"}
{"smiles": "Oc1ccc(-c2nccc(-c3cccs3)n2)cc1", "Potency": "inconclusive: 20.6 µM [activator, partial curve]"}
{"smiles": "CCOc1ccc(S(=O)(=O)N2CCC(C(=O)N3CCN(Cc4ccccc4)CC3)CC2)cc1", "activity change, positive = activation": "inactive: -13.9%"}
{"smiles": "CCOC(=O)c1ccc(N/C=C2/CCCC(C)C2=O)cc1", "note": "(stereo not given)", "Potency": "active: 4.11 µM"}
{"smiles": "Cc1cc(C)n(CCNC(=O)c2cc(COc3ccc4ncccc4c3)on2)n1", "activity change, positive = activation": "inactive: -5.44%"}
{"smiles": "CC(OC(=O)CNC(=O)C12CC3CC(CC(C3)C1)C2)C(=O)Nc1ccc(N2CCOCC2)cc1", "note": "(stereo not given)", "Potency": "inconclusive: 13 µM [activator, partial curve, poor fit]"}
{"smiles": "Nc1ccccc1C#CC(=O)c1ccccc1", "activity change, positive = activation": "inactive: -1.21%"}
{"smiles": "CC(C)CN(C)C(=O)CCc1nnc(Cc2cccc(C(F)(F)F)c2)o1", "Potency": "inconclusive: 13 µM [activator, partial curve, poor fit]"}
{"smiles": "C(=C\\c1nc2ccccc2[nH]1)/c1ccccc1", "Potency": "inconclusive: 0.461 µM [activator, full curve]"}
{"smiles": "COc1ccc(NC(=O)N2CCc3ccccc3C2)cc1OC", "Potency": "inconclusive: 18.3 µM [activator, partial curve, poor fit]"}
{"smiles": "CC1Cc2cc(-c3csc(N)n3)ccc2O1", "note": "(stereo not given)", "Potency": "inconclusive: 13 µM [activator, partial curve]"}
{"smiles": "COc1ccc(CNC(=O)Cn2ncn3cccc3c2=O)cc1", "Potency": "inconclusive: 9.2 µM [activator, partial curve, poor fit]"}
{"smiles": "Cc1cc(=O)oc2cc(NC(=O)C3CCCC3)ccc12", "Potency": "inconclusive: 20.6 µM [activator, partial curve, poor fit]"}
{"smiles": "CC(=O)c1c(NCCc2ccccc2)cc(C)oc1=O", "Potency": "inconclusive: 16.4 µM [activator, partial curve]"}
{"smiles": "CN(Cc1ccccc1)C(=O)CN1C(=O)c2ccccc2S1(=O)=O", "Potency": "inconclusive: 35.5 µM [activator, single point]"}
{"smiles": "O=c1c(-c2ccccc2)c(O)nc(SCCN2CCOCC2)n1-c1ccccc1", "activity change, positive = activation": "inactive: 1.09%"}
{"smiles": "CCOc1ccc(N2C(=O)c3ccccc3NC2(C)CC)cc1", "note": "(stereo not given)", "Potency": "inconclusive: 16.4 µM [activator, single point]"}
{"smiles": "COC(C(=O)N/N=C/c1ccc(OCC(=O)N2CCOCC2)cc1)c1ccccc1", "note": "(stereo not given)", "activity change, positive = activation": "inactive: -0.0553%"}
{"smiles": "O=C(O)c1ccc(CNCc2cccc(Cl)c2Cl)cc1", "activity change, positive = activation": "inactive: -1.7%"}
{"smiles": "CCOC(=O)c1cnn(-c2ccccn2)c1N", "Potency": "inconclusive: 9.2 µM [activator, partial curve, poor fit]"}
{"smiles": "N#Cc1nc(COc2cccc(Cl)c2)oc1NCc1ccco1", "Potency": "inconclusive: 13 µM [activator, partial curve, poor fit]"}
{"smiles": "O=C(c1ccc(Br)s1)N1CCc2ccccc2C1", "Potency": "inconclusive: 13 µM [activator, partial curve, poor fit]"}
{"smiles": "Clc1ccc(OCCSc2ncccn2)cc1", "Potency": "active: 8.2 µM"}
{"smiles": "CCOC(=O)c1c(C)[nH]c(N=Nc2ccc(C)cc2C)c1C", "Potency": "inconclusive: 20.6 µM [activator, partial curve, poor fit]"}
{"smiles": "O=C(/C=C/c1ccccc1)N/C(=C\\c1ccco1)C(=O)NCCO", "activity change, positive = activation": "inactive: 1.81%"}
{"smiles": "CC(Sc1ccccn1)C(=O)Nc1ccc2c(c1)OCCO2", "note": "(stereo not given)", "Potency": "inconclusive: 23.1 µM [activator, partial curve, poor fit]"}
{"smiles": "COC(=O)c1ccc(-c2cc3onc(-c4ccccc4)c3c(=O)n2C)cc1", "Potency": "inconclusive: 16.4 µM [activator, partial curve, poor fit]"}
{"smiles": "COc1ccc(-c2nn3c(COc4ccccc4)nnc3s2)cc1OC", "activity change, positive = activation": "inactive: 10.2%"}
{"smiles": "CCC(C(=O)O)n1nnc(-c2ccc(-c3ccc(OC)cc3)cc2)n1", "note": "(stereo not given)", "Potency": "inconclusive: 31.6 µM [activator, single point]"}
{"smiles": "O=[N+]([O-])c1cc([N+](=O)[O-])c(Oc2cc(Cl)cc(Cl)c2)cc1NN1CCCCC1", "Potency": "inconclusive: 29.1 µM [activator, partial curve, poor fit]"}
{"smiles": "O=C(/C=C/c1cccs1)c1ccc(Br)cc1", "activity change, positive = activation": "inactive: 8.19%"}
{"smiles": "O=C(NCc1ccco1)c1cccn2c(=O)c3cc4ccccc4cc3nc12", "Potency": "inconclusive: 23.1 µM [activator, single point]"}
{"smiles": "COc1ccc(OC)c(C2CC(=O)Nc3cc(OC)c(OC)c(OC)c32)c1", "note": "(stereo not given)", "Potency": "active: 18.4 µM"}
{"smiles": "Nc1cc(-c2nc3ncccc3o2)ccc1Cl", "Potency": "inconclusive: 13 µM [activator, partial curve]"}
{"smiles": "COc1cc(/C=N/N=C(\\N)c2nonc2N)ccc1O", "Potency": "inconclusive: 16.4 µM [activator, single point]"}
{"smiles": "O=C(NCCN1CCCC1)C(c1ccccc1)c1ccccc1", "activity change, positive = activation": "inactive: -3.88%"}
{"smiles": "CCCCC(=O)OCc1c(-c2cccc(OC)c2)ncc2ccccc12", "activity change, positive = activation": "inactive: -2.22%"}
{"smiles": "Clc1ccccc1OCc1nc(-c2ccc(Br)o2)no1", "Potency": "active: 23.1 µM"}
{"smiles": "O=C(c1ccco1)N1CCN(Cc2c(Cl)cccc2Cl)CC1", "Potency": "inconclusive: 23.1 µM [activator, single point]"}
{"smiles": "CC(/C=N/NC(=O)CSc1ccccn1)=C\\c1ccc(C(C)C)cc1", "Potency": "inconclusive: 20.6 µM [activator, single point]"}
